Consider 44 compounds from paper PMC4336329 (PLoS ONE, 2015).

Screen size: about 310,000 compounds; about 2,200 (0.71%) showed an effect of 50% or more. Effects have a minus sign here. The list shows a part of the results.

The target in this assay is human ether-à-go-go-related gene (hERG) potassium channel (human, UniProt Q12809). Nature of the assay: primary screen, population patch clamp on CHO cells stably expressing hERG.
human ether-à-go-go-related gene (hERG) potassium channel, sequence (Q12809 whole entry, looked up): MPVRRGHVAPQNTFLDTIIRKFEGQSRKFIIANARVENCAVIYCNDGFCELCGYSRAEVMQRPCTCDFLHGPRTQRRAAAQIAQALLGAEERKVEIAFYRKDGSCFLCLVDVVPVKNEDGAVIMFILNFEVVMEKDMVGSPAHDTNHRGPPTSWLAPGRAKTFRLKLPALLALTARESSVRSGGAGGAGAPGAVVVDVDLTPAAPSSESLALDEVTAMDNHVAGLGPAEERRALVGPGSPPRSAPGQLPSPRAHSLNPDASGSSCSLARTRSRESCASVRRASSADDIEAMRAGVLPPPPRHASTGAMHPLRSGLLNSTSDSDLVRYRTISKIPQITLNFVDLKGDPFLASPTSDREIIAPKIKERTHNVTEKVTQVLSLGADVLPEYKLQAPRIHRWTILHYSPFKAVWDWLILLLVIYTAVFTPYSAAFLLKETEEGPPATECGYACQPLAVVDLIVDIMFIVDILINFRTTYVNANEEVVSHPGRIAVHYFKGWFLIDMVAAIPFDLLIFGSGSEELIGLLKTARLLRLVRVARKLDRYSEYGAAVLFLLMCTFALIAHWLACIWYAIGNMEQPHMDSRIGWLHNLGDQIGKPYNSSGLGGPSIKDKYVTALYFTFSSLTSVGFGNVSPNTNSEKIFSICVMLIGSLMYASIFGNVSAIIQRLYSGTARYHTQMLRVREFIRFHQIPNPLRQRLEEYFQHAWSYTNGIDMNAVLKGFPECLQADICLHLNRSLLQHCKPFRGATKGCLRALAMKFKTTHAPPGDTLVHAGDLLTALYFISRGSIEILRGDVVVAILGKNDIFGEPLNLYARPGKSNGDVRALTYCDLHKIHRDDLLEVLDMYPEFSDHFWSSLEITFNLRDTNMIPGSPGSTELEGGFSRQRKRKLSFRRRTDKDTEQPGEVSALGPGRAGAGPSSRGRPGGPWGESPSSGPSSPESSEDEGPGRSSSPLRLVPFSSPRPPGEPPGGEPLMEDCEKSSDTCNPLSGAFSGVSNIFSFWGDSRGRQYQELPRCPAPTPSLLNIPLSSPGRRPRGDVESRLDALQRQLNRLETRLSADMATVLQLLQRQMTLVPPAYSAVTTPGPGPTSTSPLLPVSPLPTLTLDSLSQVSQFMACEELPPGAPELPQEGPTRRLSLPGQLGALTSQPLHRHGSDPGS
`S=C(NCCc1ccccc1)Nc1ccccc1N1CCOCC1`: the “hERG current change (%, negative = inhibition) at 1uM” value amounted to 11.8%.
Take `Cc1c(C(=O)/C=C/N(C)C)nnn1-c1ccc(F)c(Cl)c1`: the “hERG current change (%, negative = inhibition) at 1uM” value is 0.307%.
As for `O=C(CN1CCCCC1)N/N=C/c1cccc(C(F)(F)F)c1`, the “hERG current change (%, negative = inhibition) at 1uM” value is listed as -3.1%.
Regarding `CCN(C(=S)NCCOC)c1cccc2ccccc12`, the “hERG current change (%, negative = inhibition) at 1uM” value is 9.79%.
Under `Cn1c(NC(=O)COc2ccccc2)cc(=O)n(C)c1=O` stands 12.7%; under `Fc1cccc(/C=N/n2c(C3CCCCC3)n[nH]c2=S)c1`, 8.87%.
For the compound `Cc1ccc(CN(c2ccc(C(=O)Nc3ccc4c(c3)OCO4)cc2)S(C)(=O)=O)cc1`, the “hERG current change (%, negative = inhibition) at 1uM” value is 15%.
Under `CCc1nc2sc3c(O)cc(=O)[nH]c3c2cc1C` stands 11.3%; under `CC1(C)CC(=O)C/C(=N/Nc2nc3ccccc3s2)C1`, 14%; under `Cc1cc(C)c(NC(=O)CCn2nnc3ccccc32)c(C)c1`, 12.6%.
Take `CC1=C(C(=O)Nc2ccccc2)C(c2cccnc2)n2ncnc2N1` (centres unmarked): the “hERG current change (%, negative = inhibition) at 1uM” value came to 11.1%.
In the case of `Cc1ccc(NC(=O)CCSc2nnnn2-c2ccc3c(c2)OCO3)cc1C`, the “hERG current change (%, negative = inhibition) at 1uM” value amounted to 7.74%.
Under `COc1ccc(CCNC(=O)c2ccc(CN3CCC(Cc4ccccc4)CC3)cc2)cc1OC` stands -3.19%.
As to `COc1ccc(-c2ccnc(SCC(=O)N3CCN(c4ccccc4)CC3)n2)cc1`, the “hERG current change (%, negative = inhibition) at 1uM” value amounted to 13.7%.
`O=C(NC(=S)Nc1ccc(F)cc1)c1ccc2c(c1)OCCO2`: the “hERG current change (%, negative = inhibition) at 1uM” value was 3.29%.
Under `COc1ccc(/C=C(\C#N)C(=O)OCCNC(=O)c2ccncc2)cc1` stands 4.29%; under `O=C(CCN1C(=O)/C(=C/c2cccs2)SC1=S)NC1=NCCS1`, 12.8%; under `O=C(CCC1COc2ccccc2O1)Nc1ccccn1` (centres unmarked), -1.02%.
Next, `Cc1ccc(C(=O)NCCc2nnc3ccc(SCC(=O)N4CCCCC4)nn23)cc1`: 12.6%; `COc1ccc(S(=O)(=O)N2CCCN(S(=O)(=O)c3ccc(OC)cc3C)CC2)c(C)c1`: 15%.
Regarding `O=C(c1cc(S(=O)(=O)N2CCOCC2)c(Cl)cc1Cl)N1CCCCC1CO` (centres unmarked), the “hERG current change (%, negative = inhibition) at 1uM” value is reported as 12.2%.
Turning to `CCC1(CC)C(=O)N(C)C(=O)NC1=Nc1ccccc1`, the “hERG current change (%, negative = inhibition) at 1uM” value was determined as 17.9%.
Turning to `CC(Oc1ccc(Cl)cc1Cl)C(=O)NNC(=O)c1cccnc1` (centres unmarked), the “hERG current change (%, negative = inhibition) at 1uM” value came out at 4.46%.
Take `O=C(CN1CCN(S(=O)(=O)c2ccccc2)CC1)Nc1cccc(C(F)(F)F)c1`: the “hERG current change (%, negative = inhibition) at 1uM” value is -13.1%.
`COc1cc(C(=O)CSc2nnc(-c3ccc(O)cc3)n2CC2CCCO2)ccc1NC(C)=O` (centres unmarked): the “hERG current change (%, negative = inhibition) at 1uM” value amounted to 6.05%.
Consider `C/C(=N\N1CCCCCC1)c1c(O)n(C2CCCCC2)c(=O)[nH]c1=O`, for which the “hERG current change (%, negative = inhibition) at 1uM” value is 8.08%.
Under `CC(=O)Nc1ccccc1NC(=O)COc1cccc2ccccc12` stands 15.5%; under `COC(=O)c1ccc(N2CCC(C)CC2)c(N)c1`, 8.08%.
Under `Cc1ccc(CS(=O)(=O)Cc2ccc(C(=O)NCc3ccccn3)o2)cc1` stands 4.75%.
As to `COC(=O)C1=C(C)N=c2s/c(=C/c3cccs3)c(=O)n2C1c1ccc(F)cc1` (centres unmarked), the “hERG current change (%, negative = inhibition) at 1uM” value was 8.32%.
Under `OCCC1CN(C2CCN(c3ccccc3)CC2)CCN1Cc1ccc(F)c(F)c1` (centres unmarked) stands -71.1%; under `O=c1cccc2n1C[C@@H]1CNC[C@H]2C1`, 0.854%.
In the case of `O=C(Cc1ccc(F)cc1)N1CCC(N2CCC(C(=O)N3CCOCC3)CC2)CC1`, the “hERG current change (%, negative = inhibition) at 1uM” value was found to be 9.62%.
Turning to `C=CCN(C(=O)CNC(=O)c1cccs1)C(C(=O)NC(C)(C)C)c1ccccc1` (centres unmarked), the “hERG current change (%, negative = inhibition) at 1uM” value came out at 7.79%.
Under `CCC1=NN(C(=O)c2cccnc2)C(O)(C(F)(F)F)C1` (centres unmarked) stands 6.94%; under `COc1ccc(Cl)cc1NC(=O)Nc1ccccc1C(N)=O`, 17.3%; under `O=C(O)c1cccc(S(=O)(=O)Nc2ccc(O)cc2Sc2nc3ccccc3s2)c1`, 18.1%.
Under `CCOC(=O)C1CCCN(CCCc2ccccc2)C1` (centres unmarked) stands -2.62%; under `O=C(NNC(=O)c1cc(-c2ccc(Cl)c(Cl)c2)nc2ccccc12)Nc1ccccc1`, 3.86%; under `O=C(Nc1nnc(C2CC2)s1)c1cc(S(=O)(=O)N2CCN(c3ccccc3)CC2)ccc1Cl`, -4.06%.
Next, `COc1ccc(C(=O)Nc2nc3cc(OC)c(OC)cc3c(=O)[nH]2)cc1`: 8.58%.
For `FC(F)(F)c1cccc(NC(=S)NCc2ccccn2)c1`, the “hERG current change (%, negative = inhibition) at 1uM” value is 8.26%.
For the compound `CCOC(=O)c1cc(-c2cccnc2)nn1-c1ccccn1`, the “hERG current change (%, negative = inhibition) at 1uM” value was 7.68%.
For the compound `CC1CCCN1CC#CC(O)(c1ccccc1)c1ccccc1.Cl` (centres unmarked), the “hERG current change (%, negative = inhibition) at 1uM” value is recorded as -9.44%.
